The target of assay [1] is T1, exosomal GP73 (human (from HepG2 and MHCC-97H cells)) (UniProt Q8NBJ4).
T1 sequence: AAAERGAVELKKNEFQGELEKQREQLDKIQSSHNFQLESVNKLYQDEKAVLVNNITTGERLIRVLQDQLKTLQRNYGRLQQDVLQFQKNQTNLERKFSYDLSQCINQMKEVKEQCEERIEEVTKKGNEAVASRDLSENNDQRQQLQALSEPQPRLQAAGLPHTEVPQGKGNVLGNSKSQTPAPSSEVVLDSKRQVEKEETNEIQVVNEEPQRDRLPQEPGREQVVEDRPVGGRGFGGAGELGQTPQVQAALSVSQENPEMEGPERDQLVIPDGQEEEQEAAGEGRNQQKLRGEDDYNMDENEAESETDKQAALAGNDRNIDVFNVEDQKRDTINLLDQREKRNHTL
Put plainly: co-IP; lysates of HUVECs (treated with exosomes from HepG2 or MHCC-97H cells for 48 h, with GRB2 siRNA, recombinant VEGF, or stably expressing GP73-Δ1-55), 1x IP lysis buffer, antibodies with protein A/G magnetic beads, 6 h at 4 °C, immunoblotting. A general note: Immunoblotting shows a protein as a band on a membrane.

Chains of the proteins cited; added tags and fusions are not shown. Residues count along the entry.
UniProt P35968, residues 20-1356: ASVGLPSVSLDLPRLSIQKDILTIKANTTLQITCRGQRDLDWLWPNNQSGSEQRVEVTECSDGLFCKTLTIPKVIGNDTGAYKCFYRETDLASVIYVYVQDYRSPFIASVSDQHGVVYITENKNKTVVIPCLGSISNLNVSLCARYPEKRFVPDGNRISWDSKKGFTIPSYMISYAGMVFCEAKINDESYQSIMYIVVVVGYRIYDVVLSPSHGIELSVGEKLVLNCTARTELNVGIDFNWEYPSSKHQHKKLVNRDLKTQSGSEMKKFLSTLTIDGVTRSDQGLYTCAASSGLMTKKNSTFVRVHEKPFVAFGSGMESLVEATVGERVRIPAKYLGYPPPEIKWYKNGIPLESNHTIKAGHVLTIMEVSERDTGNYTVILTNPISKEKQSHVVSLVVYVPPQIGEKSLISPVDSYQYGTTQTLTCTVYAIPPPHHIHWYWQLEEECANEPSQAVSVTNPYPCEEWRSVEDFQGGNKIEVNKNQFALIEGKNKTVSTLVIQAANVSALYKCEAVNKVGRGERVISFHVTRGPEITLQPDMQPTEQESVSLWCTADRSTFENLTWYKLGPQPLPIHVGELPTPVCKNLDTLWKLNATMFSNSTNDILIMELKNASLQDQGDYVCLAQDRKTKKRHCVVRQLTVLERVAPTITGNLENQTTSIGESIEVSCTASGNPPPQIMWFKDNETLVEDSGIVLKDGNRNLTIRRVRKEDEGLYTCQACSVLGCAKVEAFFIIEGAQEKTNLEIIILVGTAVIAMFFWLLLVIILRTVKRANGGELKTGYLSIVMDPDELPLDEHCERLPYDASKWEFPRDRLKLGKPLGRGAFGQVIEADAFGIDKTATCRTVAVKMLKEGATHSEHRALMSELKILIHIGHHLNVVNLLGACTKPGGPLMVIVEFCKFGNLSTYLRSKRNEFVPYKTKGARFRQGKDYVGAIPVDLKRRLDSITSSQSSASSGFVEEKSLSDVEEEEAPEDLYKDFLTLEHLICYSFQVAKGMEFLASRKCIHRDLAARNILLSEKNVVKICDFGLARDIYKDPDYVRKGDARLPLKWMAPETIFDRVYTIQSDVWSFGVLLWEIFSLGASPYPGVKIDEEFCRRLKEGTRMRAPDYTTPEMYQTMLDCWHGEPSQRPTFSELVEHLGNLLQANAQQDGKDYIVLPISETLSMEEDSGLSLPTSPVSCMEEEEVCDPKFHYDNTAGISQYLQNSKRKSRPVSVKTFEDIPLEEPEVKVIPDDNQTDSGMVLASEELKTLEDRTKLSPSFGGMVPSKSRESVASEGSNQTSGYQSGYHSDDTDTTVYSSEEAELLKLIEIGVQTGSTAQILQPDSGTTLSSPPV
UniProt Q9ULT8: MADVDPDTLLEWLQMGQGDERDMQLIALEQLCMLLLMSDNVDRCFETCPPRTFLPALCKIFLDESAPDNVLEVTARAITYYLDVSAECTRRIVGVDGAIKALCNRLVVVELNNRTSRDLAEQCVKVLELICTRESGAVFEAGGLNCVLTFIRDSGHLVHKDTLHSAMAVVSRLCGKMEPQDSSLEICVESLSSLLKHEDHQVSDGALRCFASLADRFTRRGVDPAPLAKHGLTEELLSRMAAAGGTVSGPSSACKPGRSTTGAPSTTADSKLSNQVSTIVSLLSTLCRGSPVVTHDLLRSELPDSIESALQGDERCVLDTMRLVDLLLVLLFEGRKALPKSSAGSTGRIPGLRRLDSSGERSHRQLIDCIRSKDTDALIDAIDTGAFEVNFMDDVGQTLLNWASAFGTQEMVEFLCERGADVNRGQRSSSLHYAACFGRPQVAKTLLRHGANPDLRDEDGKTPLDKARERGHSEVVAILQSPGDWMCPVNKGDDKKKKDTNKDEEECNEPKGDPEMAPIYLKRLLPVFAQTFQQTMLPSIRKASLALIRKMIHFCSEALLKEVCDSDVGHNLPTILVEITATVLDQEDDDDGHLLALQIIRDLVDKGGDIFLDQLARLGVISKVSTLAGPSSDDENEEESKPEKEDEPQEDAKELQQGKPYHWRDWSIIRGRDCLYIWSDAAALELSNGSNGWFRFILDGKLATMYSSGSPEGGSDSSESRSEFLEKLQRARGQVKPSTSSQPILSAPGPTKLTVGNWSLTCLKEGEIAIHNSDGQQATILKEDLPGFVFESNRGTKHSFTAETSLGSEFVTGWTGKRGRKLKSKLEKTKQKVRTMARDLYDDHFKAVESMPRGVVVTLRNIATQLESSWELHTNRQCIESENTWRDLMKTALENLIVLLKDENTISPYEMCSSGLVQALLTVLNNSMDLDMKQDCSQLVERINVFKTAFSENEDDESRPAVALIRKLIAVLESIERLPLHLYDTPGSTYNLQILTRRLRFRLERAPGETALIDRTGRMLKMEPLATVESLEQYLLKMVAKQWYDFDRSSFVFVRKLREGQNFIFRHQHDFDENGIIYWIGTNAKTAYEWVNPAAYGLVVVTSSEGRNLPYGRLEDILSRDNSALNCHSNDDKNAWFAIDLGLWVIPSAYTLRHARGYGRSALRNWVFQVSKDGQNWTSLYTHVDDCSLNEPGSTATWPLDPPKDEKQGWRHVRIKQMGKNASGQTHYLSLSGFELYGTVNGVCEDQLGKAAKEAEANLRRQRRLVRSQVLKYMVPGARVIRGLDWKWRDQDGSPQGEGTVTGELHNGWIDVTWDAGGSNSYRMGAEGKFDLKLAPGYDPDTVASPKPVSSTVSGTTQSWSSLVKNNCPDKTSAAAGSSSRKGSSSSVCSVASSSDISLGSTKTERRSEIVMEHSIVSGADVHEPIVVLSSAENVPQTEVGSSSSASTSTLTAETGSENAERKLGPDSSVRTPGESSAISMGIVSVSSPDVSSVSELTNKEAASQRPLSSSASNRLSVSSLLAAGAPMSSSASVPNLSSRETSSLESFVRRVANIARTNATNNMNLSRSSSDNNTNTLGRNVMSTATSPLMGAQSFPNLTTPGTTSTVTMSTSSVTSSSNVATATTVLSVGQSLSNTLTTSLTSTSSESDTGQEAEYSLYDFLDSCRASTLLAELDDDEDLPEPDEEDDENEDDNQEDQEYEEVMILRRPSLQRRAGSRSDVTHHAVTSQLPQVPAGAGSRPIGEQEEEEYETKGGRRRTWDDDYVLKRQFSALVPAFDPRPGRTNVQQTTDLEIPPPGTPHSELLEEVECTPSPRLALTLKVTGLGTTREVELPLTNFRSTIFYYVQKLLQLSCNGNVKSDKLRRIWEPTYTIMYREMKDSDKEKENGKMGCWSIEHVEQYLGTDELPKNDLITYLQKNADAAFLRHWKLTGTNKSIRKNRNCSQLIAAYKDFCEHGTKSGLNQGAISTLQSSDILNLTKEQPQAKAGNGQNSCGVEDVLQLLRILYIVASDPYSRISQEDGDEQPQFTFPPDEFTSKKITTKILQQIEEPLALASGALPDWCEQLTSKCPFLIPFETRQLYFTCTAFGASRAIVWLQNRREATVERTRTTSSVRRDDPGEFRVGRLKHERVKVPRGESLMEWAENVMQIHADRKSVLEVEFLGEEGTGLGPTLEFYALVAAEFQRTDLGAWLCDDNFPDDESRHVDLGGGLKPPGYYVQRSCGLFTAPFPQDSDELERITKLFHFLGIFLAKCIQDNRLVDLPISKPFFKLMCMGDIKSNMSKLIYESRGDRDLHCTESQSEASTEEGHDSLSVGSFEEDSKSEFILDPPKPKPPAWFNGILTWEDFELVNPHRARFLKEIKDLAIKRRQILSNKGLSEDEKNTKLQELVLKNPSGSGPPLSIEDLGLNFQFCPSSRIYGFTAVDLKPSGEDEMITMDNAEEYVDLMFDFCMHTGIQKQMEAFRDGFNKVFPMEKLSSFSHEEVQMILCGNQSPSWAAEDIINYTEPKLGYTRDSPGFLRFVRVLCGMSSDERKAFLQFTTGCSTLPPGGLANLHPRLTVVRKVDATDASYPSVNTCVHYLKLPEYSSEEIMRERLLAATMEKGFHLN
UniProt Q9GZT9: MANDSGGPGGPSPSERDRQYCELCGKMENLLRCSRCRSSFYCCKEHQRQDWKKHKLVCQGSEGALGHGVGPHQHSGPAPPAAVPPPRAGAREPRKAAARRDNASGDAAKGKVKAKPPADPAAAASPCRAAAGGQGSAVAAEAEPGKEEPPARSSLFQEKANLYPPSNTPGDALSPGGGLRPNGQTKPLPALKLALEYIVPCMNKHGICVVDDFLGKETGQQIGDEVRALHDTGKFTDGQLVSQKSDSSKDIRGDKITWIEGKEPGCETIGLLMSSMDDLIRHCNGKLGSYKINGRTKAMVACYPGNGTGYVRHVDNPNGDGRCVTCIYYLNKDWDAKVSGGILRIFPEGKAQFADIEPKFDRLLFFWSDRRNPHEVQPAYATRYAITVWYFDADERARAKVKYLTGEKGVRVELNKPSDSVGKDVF
UniProt P62993: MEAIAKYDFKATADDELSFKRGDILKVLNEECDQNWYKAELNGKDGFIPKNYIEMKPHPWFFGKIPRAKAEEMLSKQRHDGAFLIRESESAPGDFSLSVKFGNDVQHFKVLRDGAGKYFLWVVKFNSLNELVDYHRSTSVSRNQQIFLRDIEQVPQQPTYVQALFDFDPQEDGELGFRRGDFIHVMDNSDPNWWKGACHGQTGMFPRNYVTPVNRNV
UniProt Q16665: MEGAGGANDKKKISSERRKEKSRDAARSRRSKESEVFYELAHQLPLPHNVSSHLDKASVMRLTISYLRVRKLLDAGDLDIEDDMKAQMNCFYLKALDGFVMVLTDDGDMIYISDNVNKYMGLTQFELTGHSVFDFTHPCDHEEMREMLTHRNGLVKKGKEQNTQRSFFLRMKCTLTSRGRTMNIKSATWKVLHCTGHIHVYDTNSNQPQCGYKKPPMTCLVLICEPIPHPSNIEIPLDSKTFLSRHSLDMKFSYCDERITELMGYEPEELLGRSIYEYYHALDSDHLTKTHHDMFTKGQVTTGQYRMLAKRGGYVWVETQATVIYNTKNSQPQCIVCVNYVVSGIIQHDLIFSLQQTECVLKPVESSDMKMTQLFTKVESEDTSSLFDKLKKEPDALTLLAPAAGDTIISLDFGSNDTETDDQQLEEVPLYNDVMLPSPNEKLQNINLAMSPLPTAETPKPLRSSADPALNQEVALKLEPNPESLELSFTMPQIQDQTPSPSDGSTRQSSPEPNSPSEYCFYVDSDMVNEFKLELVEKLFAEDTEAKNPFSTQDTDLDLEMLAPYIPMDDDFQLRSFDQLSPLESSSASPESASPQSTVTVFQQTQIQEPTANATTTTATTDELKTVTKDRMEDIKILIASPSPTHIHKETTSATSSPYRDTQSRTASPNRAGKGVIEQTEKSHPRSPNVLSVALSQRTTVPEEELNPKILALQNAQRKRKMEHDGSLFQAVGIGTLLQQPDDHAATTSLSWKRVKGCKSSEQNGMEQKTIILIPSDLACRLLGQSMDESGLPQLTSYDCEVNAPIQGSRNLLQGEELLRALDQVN

The target in assay [2] is T2, Golgi protein 73 (GP73) (human (endogenous in MHCC-97H)) (UniProt Q8NBJ4).
T2 sequence: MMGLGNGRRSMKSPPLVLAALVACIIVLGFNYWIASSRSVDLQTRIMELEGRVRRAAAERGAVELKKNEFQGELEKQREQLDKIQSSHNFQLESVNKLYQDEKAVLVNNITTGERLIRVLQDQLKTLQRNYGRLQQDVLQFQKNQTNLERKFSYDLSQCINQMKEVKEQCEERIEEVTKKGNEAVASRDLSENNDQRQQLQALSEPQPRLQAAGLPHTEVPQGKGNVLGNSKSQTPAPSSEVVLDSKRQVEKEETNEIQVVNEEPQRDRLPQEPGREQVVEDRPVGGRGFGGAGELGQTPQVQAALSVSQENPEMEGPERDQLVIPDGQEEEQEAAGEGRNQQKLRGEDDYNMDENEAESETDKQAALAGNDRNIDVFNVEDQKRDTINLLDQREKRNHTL
Put plainly: co-IP; lysates of HepG2 and MHCC-97H cells (GP73 overexpressed or silenced; with or without BFA 2.5 μg/ml for 12 h), 1x IP lysis buffer, antibodies with protein A/G magnetic beads, 6 h at 4 °C, immunoblotting.

The target of assay [3] is VEGFR2 (human (endogenous in HUVEC)) (UniProt P35968). Description: co-IP; lysates of HUVECs (treated with exosomes from HepG2 or MHCC-97H cells for 48 h, with GRB2 siRNA, recombinant VEGF, or stably expressing GP73-Δ1-55), 1x IP lysis buffer, antibodies with protein A/G magnetic beads, 6 h at 4 °C, immunoblotting.
The target of assay [4] is HECTD1 (human (endogenous in HUVEC)) (UniProt Q9ULT8). The assay is described as above.

No constants are given. Whether binding was seen depends on the method and setting. In cells and extracts the contact can be indirect. Some results given as binding are weak or reduced against the parent protein; the word gives no strength.

Take “HECTD1 (from UniProt Q9ULT8 1-2610) (enzyme)”: the binding result in assay [1] is “binds”.

On to “prolyl hydroxylase-2 (PHD-2) (from UniProt Q9GZT9 1-426) (enzyme)”, for which the binding result in assay [2] is “binds”.

In the case of “growth factor receptor-bound protein 2 (GRB2) (from UniProt P62993 1-217)”, the binding entry in assay [3] and in assay [4] was “binds” each time.

Regarding “hypoxia-induced factor-1α (HIF-1α) (from UniProt Q16665 1-826)”, the binding entry in assay [2] is “no binding”.

Values taken from paper PMC11251733.
